Measurements taken from the supplement of paper PMC12067230.
Single values of this set are uncertain.
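Note: [psi-pin-] Saccharomyces cerevisiae expressing SupN fusions, induced by 100 µM Cu2SO4, selected 7 d at 30 °C without adenine and uracil, scored by deep sequencing of output versus input.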

Test: amyloid nucleation score relative to library mode (yeast Sup35 reporter selection) (log enrichment difference); higher = more amyloid nucleation; sequences are the first 22 residues of the Bri2 peptide extended by up to 12 random residues
Conditions: random library (experiment): 1;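 active = nucleation score significantly above 0 at FDR 0.05; inactive = not significantly above 0 or absent from output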
In the case of EASNCFAIRHFENKFAVETLICYIPLLHIFFQMP, the amyloid nucleation score is reported as “inactive”.
In the case of EASNCFAIRHFENKFAVETLICMACYSGYLFLWY, the amyloid nucleation score is reported as “inactive”.
In the case of EASNCFAIRHFENKFAVETLICHVYKIGSQVVER, the amyloid nucleation score is reported as “inactive”.
EASNCFAIRHFENKFAVETLICFCDEGRMKPHAG showed an amyloid nucleation score of 6.95.
Sequence EASNCFAIRHFENKFAVETLICVFM has an amyloid nucleation score of 4.72.
EASNCFAIRHFENKFAVETLICCIDVMHREKGGA showed an amyloid nucleation score of 5.72.
In the case of EASNCFAIRHFENKFAVETLICALMVLSKSDPSV, the amyloid nucleation score is reported as “inactive”.
With EASNCFAIRHFENKFAVETLICRVTEG the amyloid nucleation score was “inactive”.
In the case of EASNCFAIRHFENKFAVETLICYVMGDMLRVSAC, the amyloid nucleation score is reported as “inactive”.
In the case of EASNCFAIRHFENKFAVETLICYDRGTQGILVR, the amyloid nucleation score is reported as “inactive”.
For EASNCFAIRHFENKFAVETLICLSVAMRTGWGLA, the amyloid nucleation score was “inactive”.
In the case of EASNCFAIRHFENKFAVETLICDMFWRCGHRVMR, the amyloid nucleation score is reported as 2.19.
Sequence EASNCFAIRHFENKFAVETLICVACPGTMVCVQL has an amyloid nucleation score of 6.4.
In the case of EASNCFAIRHFENKFAVETLICKMSTWSPVSVTW, the amyloid nucleation score is reported as “inactive”.
In the case of EASNCFAIRHFENKFAVETLICYTMSMGIWDRMW, the amyloid nucleation score is reported as “inactive”.
For EASNCFAIRHFENKFAVETLICNAACGRESREAA, the amyloid nucleation score was “inactive”.
Work on EASNCFAIRHFENKFAVETLICWCLLVTVARLSA yielded an amyloid nucleation score of 0.00985.
Work on EASNCFAIRHFENKFAVETLICLCASCRTMCRGE yielded an amyloid nucleation score of 0.
With EASNCFAIRHFENKFAVETLICFPNRLRYARLAL the amyloid nucleation score was “inactive”.
EASNCFAIRHFENKFAVETLICLPWTDVECPCRV showed an amyloid nucleation score of 5.22.
In the case of EASNCFAIRHFENKFAVETLICNAKVTDHMRMEG, the amyloid nucleation score is reported as “inactive”.
For EASNCFAIRHFENKFAVETLICVTACPHTIRWCS, the amyloid nucleation score was “inactive”.
For EASNCFAIRHFENKFAVETLICGAKVRWHDRTVG, the amyloid nucleation score was 0.0198.
For EASNCFAIRHFENKFAVETLICVFGGTLGPGVWA, the amyloid nucleation score was 8.03.
With EASNCFAIRHFENKFAVETLICERRLGLKVVVCG the amyloid nucleation score was 1.01.
EASNCFAIRHFENKFAVETLICTIFTTSRRCLPY showed an amyloid nucleation score of 0.761.
EASNCFAIRHFENKFAVETLICHTSDSPDLYRSC gave an amyloid nucleation score of 1.63.
For EASNCFAIRHFENKFAVETLICVGWMRSVSWLAC, the amyloid nucleation score was “inactive”.
EASNCFAIRHFENKFAVETLICYVAYWTVFRVEG gave an amyloid nucleation score of -0.258.
In the case of EASNCFAIRHFENKFAVETLICGNSWLIVYRFAG, the amyloid nucleation score is reported as “inactive”.
For EASNCFAIRHFENKFAVETLICRVDGAVGEGAPG, the amyloid nucleation score was “inactive”.

Same assay, conditions: random library (experiment): 2
With EASNCFAIRHFENKFAVETLICFCGRFSY the amyloid nucleation score was 0.498.
EASNCFAIRHFENKFAVETLICNHLYSRSIFCQS showed an amyloid nucleation score of 2.92.
For EASNCFAIRHFENKFAVETLICQGLEIGT, the amyloid nucleation score was “inactive”.
For EASNCFAIRHFENKFAVETLICNMDMCSKVMFWG, the amyloid nucleation score was 7.58.
For EASNCFAIRHFENKFAVETLICLHQVQMHRKG, the amyloid nucleation score was 0.528.
For EASNCFAIRHFENKFAVETLICVDLDDRS, the amyloid nucleation score was -0.3.
With EASNCFAIRHFENKFAVETLICVWQNSKARYKKM the amyloid nucleation score was “inactive”.
In the case of EASNCFAIRHFENKFAVETLICDVHWGALWFCMF, the amyloid nucleation score is reported as “inactive”.
With EASNCFAIRHFENKFAVETLICRSVSFP the amyloid nucleation score was “inactive”.
For EASNCFAIRHFENKFAVETLICREKCQDQQRVQA, the amyloid nucleation score was “inactive”.
Sequence EASNCFAIRHFENKFAVETLICMQVCQLREWRGE has an amyloid nucleation score of 3.51.
In the case of EASNCFAIRHFENKFAVETLICWNSSSFDLCAWS, the amyloid nucleation score is reported as 4.84.
With EASNCFAIRHFENKFAVETLICWALRVSFVIQLD the amyloid nucleation score was “inactive”.
For EASNCFAIRHFENKFAVETLICLGKNSSAKLGIG, the amyloid nucleation score was “inactive”.
For EASNCFAIRHFENKFAVETLICLVMVSQEWSMLH, the amyloid nucleation score was “inactive”.
In the case of EASNCFAIRHFENKFAVETLICYKNL, the amyloid nucleation score is reported as “inactive”.
For EASNCFAIRHFENKFAVETLICYHPRYLVSVVRR, the amyloid nucleation score was “inactive”.
For EASNCFAIRHFENKFAVETLICPSKFEACHGLYL, the amyloid nucleation score was “inactive”.
In the case of EASNCFAIRHFENKFAVETLICCRKIFWSTTFCS, the amyloid nucleation score is reported as “inactive”.
Work on EASNCFAIRHFENKFAVETLICYTSYCSCSFIGT yielded an amyloid nucleation score of 5.89.
For EASNCFAIRHFENKFAVETLICPGF, the amyloid nucleation score was 0.416.
Work on EASNCFAIRHFENKFAVETLICVCDNKPSTQCAI yielded an amyloid nucleation score of 4.93.
Sequence EASNCFAIRHFENKFAVETLICCLVTYSCVYE has an amyloid nucleation score of -0.0198.
With EASNCFAIRHFENKFAVETLICRYF the amyloid nucleation score was -0.239.
With EASNCFAIRHFENKFAVETLICVVLVVFSGGTSL the amyloid nucleation score was “inactive”.

Same assay, conditions: random library (experiment): 3
For EASNCFAIRHFENKFAVETLICDAYFCLLEPCSN, the amyloid nucleation score was “inactive”.
In the case of EASNCFAIRHFENKFAVETLICAVRGGRVCRWVV, the amyloid nucleation score is reported as “inactive”.
Sequence EASNCFAIRHFENKFAVETLICCSVWRCTVGSGN has an amyloid nucleation score of 8.48.
For EASNCFAIRHFENKFAVETLICGMLACHWDGPRM, the amyloid nucleation score was 9.65.
In the case of EASNCFAIRHFENKFAVETLICDRE, the amyloid nucleation score is reported as “inactive”.
For EASNCFAIRHFENKFAVETLICFFDLACYVYIEG, the amyloid nucleation score was “inactive”.
In the case of EASNCFAIRHFENKFAVETLICYMCNRLMYLVFR, the amyloid nucleation score is reported as “inactive”.
In the case of EASNCFAIRHFENKFAVETLICVVILRCIPVKTQ, the amyloid nucleation score is reported as “inactive”.
For EASNCFAIRHFENKFAVETLICVLWWVSRGAVSM, the amyloid nucleation score was “inactive”.
EASNCFAIRHFENKFAVETLICWYQVRVLLIRDW gave an amyloid nucleation score of -0.558.
For EASNCFAIRHFENKFAVETLICNLAWG, the amyloid nucleation score was 3.24.
For EASNCFAIRHFENKFAVETLICPSKTC, the amyloid nucleation score was “inactive”.
In the case of EASNCFAIRHFENKFAVETLICRVYRWRYRTWFR, the amyloid nucleation score is reported as “inactive”.
EASNCFAIRHFENKFAVETLICVEPIPQVARRTT showed an amyloid nucleation score of 0.937.
In the case of EASNCFAIRHFENKFAVETLICTSWRRWPVTGLR, the amyloid nucleation score is reported as “inactive”.
In the case of EASNCFAIRHFENKFAVETLICESAAYGAMVWAR, the amyloid nucleation score is reported as “inactive”.
EASNCFAIRHFENKFAVETLICTSEFGDTKWRVG gave an amyloid nucleation score of 2.14.
For EASNCFAIRHFENKFAVETLICCVDSVQLYSVRK, the amyloid nucleation score was 8.64.
In the case of EASNCFAIRHFENKFAVETLICAVEHLWMLGLAT, the amyloid nucleation score is reported as “inactive”.
With EASNCFAIRHFENKFAVETLICIDDGEVQARRAW the amyloid nucleation score was “inactive”.
In the case of EASNCFAIRHFENKFAVETLICMPSCTRLHAFWR, the amyloid nucleation score is reported as 2.15.
Sequence EASNCFAIRHFENKFAVETLICRAFTAQWLKMLL has an amyloid nucleation score of 0.649.
With EASNCFAIRHFENKFAVETLICGHRRRVRSRPEW the amyloid nucleation score was “inactive”.
In the case of EASNCFAIRHFENKFAVETLICKIRALLSPSWAE, the amyloid nucleation score is reported as “inactive”.
Sequence EASNCFAIRHFENKFAVETLICGEVSNILCSFEM has an amyloid nucleation score of 3.83.
In the case of EASNCFAIRHFENKFAVETLICLGLFPRYDGSAR, the amyloid nucleation score is reported as 6.45.
Sequence EASNCFAIRHFENKFAVETLICALILDWCMEERV has an amyloid nucleation score of 0.788.
Sequence EASNCFAIRHFENKFAVETLICLNVRYSCVPRYN has an amyloid nucleation score of 5.24.
With EASNCFAIRHFENKFAVETLICGYKLTCECVFST the amyloid nucleation score was “inactive”.
In the case of EASNCFAIRHFENKFAVETLICRRGYPIFAGRLG, the amyloid nucleation score is reported as “inactive”.
